Hit rate of the full screen: of about 45,000 compounds, about 200 (0.44%) were called active. Another 7% or so got no clear call; they are omitted. The call rests on the fitted dose curve; in most records, active means well fitted activation curve with a large enough effect; inconclusive means small, poorly fitted or top-dose-only effect; inactive means no such curve, though single readings can be large or run the other way. The list shows a part of the results.
assay: qHTS of TDP-43 Inhibitors: NCGC Sytravon Library Screen; details: yeast TDP-43 toxicity rescue, BacTiter-Glo growth, 24 h; series mostly up to 46.1 µM; growth rescue (activation): at the top concentration; further: 0% is about no effect; nearly all actives have a fitted effect of over 55% in size
In short: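 TDP-43-expressing yeast, pregrown in raffinose, seeded at OD600 0.02 in galactose medium with compound for 24 hr at 30 deg C. Growth read by BacTiter-Glo luminescence, so rescue of toxicity appears as activation.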

Structure (SMILES)	growth rescue (activation)
O=C1CCc2cc(S(=O)(=O)NC(Cc3ccccc3)C(=O)N3CCN(c4ccccn4)CC3)ccc2N1 (stereo not given)	inactive: -28.6%
CCN(CC)C(=O)NC(c1ccc(C)c(F)c1)C(Cl)(Cl)Cl (stereo not given)	inactive: 20.7%
CC1C(=O)C(C)C(c2cc(Br)ccc2O)NC1c1cc(Br)ccc1O (stereo not given)	inactive: -21%
O=C(COC(=O)c1cnccn1)c1ccc(C2CCCCC2)cc1	inactive: 3.22%
OC(c1ccc(F)cc1)c1nc(-c2cccc(C(F)(F)F)c2)cs1 (stereo not given)	inactive: -50.5%
COc1ccc(NC(=S)N2CCC(NC(=O)c3cccc(F)c3)CC2)cc1	inactive: -13.9%
Cc1ccc(OCC(=O)NCCCNC(=O)c2ccco2)cc1C	inactive: 9.61%
Cn1nnc(NC(=O)c2ccccc2F)n1	inactive: -10.5%
O=C(CSc1nc2ccccc2[nH]1)NC1CCCc2ccccc21 (stereo not given)	inactive: 4.45%
CC(C)c1nc(SCC(=O)NC2CCCC2)c2ccccc2n1	inactive: 13.9%
O=c1[nH]c(CN2CCCCC2)nc2ccccc12	inactive: 21.9%
COc1ccc(NS(=O)(=O)c2cccc(C(=O)Nc3cccc(C(=O)O)c3)c2)cc1	inactive: -5.86%
O=C(Nn1c(C2CCC2)nc2ccccc2c1=O)c1cccs1	inactive: 3.46%
CCOC(=O)/C(=C\c1ccc(OC)c(OC)c1)C(=O)c1cccnc1	inactive: 16.4%
Cc1ccc(-c2nnc(Nc3ccc(C(=O)N(C)C)cc3)c3ccccc23)cc1S(=O)(=O)NC(C)(C)CO	inactive: 24.7%
Cn1c(=O)cc(SCC(=O)NCc2ccc(F)cc2)c2ccccc21	inactive: 12.5%
COc1cc(OC)c(CN2CCC(CO)(CCOc3ccccc3)CC2)c(OC)c1	inactive: 6.04%
CCCOC(=O)c1ccc(NC(=O)CN(C)Cc2cccs2)cc1	inactive: 4.74%
Cc1csc(=O)n1CCC(=O)N(C)Cc1c(F)cccc1Cl	inactive: 15.2%
Cc1[nH]c2ccccc2c1C(c1ccncc1)N1CCN(c2ccc(F)cc2)CC1 (stereo not given)	inactive: 10.1%
O=C(CSc1nnc(-c2ccccc2)n1-c1ccc(Cl)cc1)NNC(=S)Nc1ccccc1	inactive: 29.1%
CCc1cccc2c(C(=O)C(NCCCOC)c3ccccc3)c[nH]c12 (stereo not given)	inactive: 7.4%
Cc1ccc(-c2cc(C(=O)NCC(c3ccccc3)N(C)C)c3ccccc3n2)o1 (stereo not given)	inactive: -19.7%
O=C(CCN1C(=O)/C(=C/C=C/c2ccccc2)SC1=S)Nc1nc2ccccc2s1	inactive: 8.13%
O=C(/C(=N\O)n1cncn1)c1ccc(Cl)cc1Cl	inactive: 17.6%
O=C(NCc1ccccn1)c1ccc(OC2CCN(Cc3ccccc3O)CC2)cc1	inactive: 5.88%
COc1ccc(/C(C)=N/Nc2ccccc2Cl)c(O)c1	inactive: 6.01%
CCOc1ccc(S(=O)(=O)N2CCN(CC)CC2)cc1NC(=O)c1ccccc1F	inactive: 3.31%
O=C(O)C1=NOC(CNc2ncc(C(F)(F)F)cc2Cl)C1 (stereo not given)	inactive: 2.2%
Cc1ccc(S(=O)(=O)N2CCCCC2)cc1C(=O)OCC(=O)N1c2ccccc2NC(=O)C1(C)C	inactive: 10.6%

Reference: PubChem BioAssay AID1347073 (National Center for Advancing Translational Sciences (NCATS), 2019)
